According to PubChem BioAssay AID1345083 (National Center for Advancing Translational Sciences (NCATS), 2018):
The campaign covered roughly 94,000 compounds. About 6,200 (6.6%) were called active. The inconclusive results got no clear call from the source; some entries with a clear call stand among them for comparison. The call rests on the fitted dose curve; in most records, active means well fitted inhibition curve with a large enough effect; inconclusive means small, poorly fitted or top-dose-only effect; inactive means flat fitted curve, though single readings scatter. A potency beside an inconclusive call is a rough fit, not a confirmed value.
On the % scale 0 is the no-effect control and ±100 the full control effect; potency means the concentration at half of the fitted maximal effect; tags describe the fitted curve by direction and shape.

Experiment: Cytotoxic Profiling in HEK 293 Cell Line of Diverse Libraries Using Quantitative High-Throughput Screening; further: nearly all actives have a fitted effect of over 60% in size
Settings: HEK 293 viability, ATP luminescence (CellTiter-Glo), 48-72 h; activity change, negative = cytotoxicity: at 115 µM (top of the series) unless noted; series mostly up to 115 µM
Procedure, shortened: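 Cells seeded first (HEK 293, 250 cells/well), then compound added by pintool. Incubation ran 48 or 72 hr at 37 degree Celsius. CellTiter-Glo was added and luminescence imaged after 10 min at room temperature.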
With `COc1ccc(CN2C(=O)[C@@H]3C[C@@H](CN3Cc3ccc4c(c3)OCO4)Oc3ccccc32)cc1` the “outcome” value was “inactive”.
In the case of `Cn1cc(-c2ccccc2F)c2nc(COc3ccccc3)cn2c1=O`, the Potency was inconclusive: 100 µM [inhibitor, partial curve, poor fit].
For `Cc1ccc(C(=O)N2CCN(C(=O)c3nc4cccnc4n(C4CCCC4)c3=O)CC2)cc1`, the “outcome” value was “inactive”.
In the case of `COc1ccc(Cl)cc1-c1ncc2c(n1)OCCN(Cc1ccc(F)cc1F)C2=O`, the Potency was inconclusive: 100 µM [inhibitor, partial curve].
For `Cc1nonc1CC(=O)N1CCCC(CNS(=O)(=O)c2cccs2)C1` (stereo not drawn), the “activity change, negative = cytotoxicity” value was inactive: -11.1%.
With `Cc1cc(C)n(-c2ccc(NC(=O)C3CCN(Cc4nnc(C)o4)CC3)cc2)n1` the “activity change, negative = cytotoxicity” value was inactive: -15.5%.
In the case of `COCCN1CCNc2nc(COc3ccc(Oc4ccccc4)cc3)n(Cc3ccccc3)c2C1=O`, the Potency was inconclusive: 50.1 µM [inhibitor, partial curve, poor fit].
For `CCCn1cc2c3c(cccc31)CN(C(=O)c1cccc(F)c1)CC2`, the Potency was inconclusive: 50.1 µM [inhibitor, partial curve, poor fit].
In the case of `CC(C)C(=O)Nc1ccc(C2(C(=O)NCc3ccc(F)c(Cl)c3)CCC2)cc1`, the Potency was active: 79.4 µM.
For `CCn1nc(C)c(CCC(=O)NC2CCCc3c2[nH]c2ccccc32)c1C` (stereo not drawn), the Potency was inconclusive: 79.4 µM [inhibitor, partial curve, poor fit].
For `Cc1cn2nc(C(=O)NCc3ccccc3C(F)(F)F)cc2c(N2CCSCC2)n1`, the Potency was inconclusive: 70.8 µM [inhibitor, single point].
For `Cc1ccc(NC(=O)c2cnc(-c3ccccc3)nc2-c2ccncc2)c(Br)c1`, the “activity change, negative = cytotoxicity” value was inactive: 2.64%.
With `COc1ccc(-c2nc(-c3ccccc3)nc3c2CN(C(=O)Cc2ccccn2)CC3)cc1` the Potency was inconclusive: 50.1 µM [inhibitor, partial curve, poor fit].
In the case of `CC(C)c1nc2c(c(-c3ccc(O)cc3)n1)CN(C(=O)C1CCCC1)CC2`, the Potency was inconclusive: 50.1 µM [inhibitor, partial curve, poor fit].
With `CCc1nnc(CNC(=O)c2cn(CCN3CCNCC3)nn2)s1` the Potency was inconclusive: 28.2 µM [inhibitor, single point].
In the case of `CNC[C@@]12CN(Cc3ccccc3)C[C@@H]1C(C)(C)COc1ccc(OC)cc12`, the Potency was inconclusive: 44.7 µM [inhibitor, partial curve, poor fit].
With `CC[C@H]1CN(C(=O)c2ccnc(Cl)c2)CC[C@H]1CC(=O)NCc1cccnc1` the “activity change, negative = cytotoxicity” value was inactive: 2% [at 172 µM].
In the case of `O=C1CC2(CCN(C(=O)C3CCN([S+](=O)([O-])c4cccs4)CC3)CC2)Oc2ccccc2N1`, the Potency was active: 28.2 µM.
For `CCCN(CC1CC1)C(=O)c1c(OCC2CC2)cc(=O)n2c1CCCCC2`, the Potency was inconclusive: 56.2 µM [inhibitor, single point].
For `Cc1ccc(CN2CCCCCNC(=O)[C@H]3C[C@H](C(=O)N4CCc5ccccc5C4)C[C@H]32)o1`, the Potency was inconclusive: 79.4 µM [inhibitor, partial curve, poor fit].
In the case of `CN(C)C[C@@H]1CN(c2ccccn2)C[C@H]1NC(=O)CC1=CCCCC1`, the “outcome” value was “inactive”.
In the case of `COc1ccccc1-n1cc(-c2nc(C3CCOC3)no2)cn1` (stereo not drawn), the Potency was inconclusive: 100 µM [inhibitor, single point].
For `O=C(NCc1ccc(F)cc1)C1COC2(CCCCC2)N1C(=O)c1ccccc1` (stereo not drawn), the Potency was inconclusive: 89.1 µM [inhibitor, single point].
For `O=S(=O)(Cc1cccc(Cl)c1)NCCc1noc(-c2ccccc2)n1`, the Potency was inconclusive: 56.2 µM [inhibitor, partial curve, poor fit].
In the case of `COc1ccc(NC(=O)Cn2nc3c(cc2=O)CN(C(C)=O)CC3)cc1Cl`, the “activity change, negative = cytotoxicity” value was inactive: 1.58%.
For `COCc1cc(C[C@@H]2C[C@H](NC(=O)c3ccnc(Cl)c3)C2(C)C)no1`, the Potency was inconclusive: 79.4 µM [inhibitor, partial curve, poor fit].
In the case of `O=C(NCCc1ccncc1)c1ccc2c(c1)N(S(=O)(=O)c1ccccc1F)CC2`, the Potency was inconclusive: 50.1 µM [inhibitor, partial curve, poor fit].
For `O=C1Nc2ccc(-c3cccc(C(F)(F)F)c3)cc2C(=O)N2CCN(C(=O)COc3ccccc3)C[C@H]12`, the Potency was inconclusive: 89.1 µM [inhibitor, single point].
For `O=C(COc1ccccc1)N1CC2(C1)CN(Cc1ccc(Cl)cc1)C(=O)O2`, the Potency was inconclusive: 100 µM [inhibitor, partial curve].
With `COc1ccc(NC(=O)O[C@@H]2CO[C@H]3[C@@H]2OC[C@@H]3NS(=O)(=O)c2ccccc2C#N)cc1` the “activity change, negative = cytotoxicity” value was inactive: 0.635%.
With `COc1ccc(C(=O)N2CCCC(c3nccn3CC3CCC3)C2)c(OC)n1` (stereo not drawn) the Potency was inconclusive: 39.8 µM [inhibitor, partial curve, poor fit].
With `CC(C)c1nc(NCc2ccccc2Cn2cccn2)c2cnn(C)c2n1` the Potency was inconclusive: 89.1 µM [inhibitor, single point].
For `O=C(c1cncc(Br)c1)N1CCC(n2c(=O)[nH]c3ccccc32)CC1`, the Potency was inconclusive: 56.2 µM [inhibitor, partial curve, poor fit].
In the case of `O=C(C1CCCC1)N1CC2(CCCN(CC3CCCCC3)C2)Cc2ccccc21` (stereo not drawn), the Potency was inconclusive: 79.4 µM [inhibitor, partial curve].
For `O=C(CCC1CCCC1)N1CC(c2nnc(-c3ccncc3)o2)C2(CCOCC2)C1` (stereo not drawn), the Potency was inconclusive: 31.6 µM [inhibitor, full curve].
With `O=C(NC1CCCCC1)[C@@H]1C[C@@H](O)CN1C1CCN(C(=O)c2ccc3c(c2)OCO3)CC1` the “outcome” value was “inactive”.
In the case of `Cc1ccc(CN2CC[C@H](c3nnc(-c4ccccc4F)o3)C2)o1`, the Potency was inconclusive: 126 µM [inhibitor, single point].
For `COc1ccccc1OC1CCN(Cc2ccccc2C#N)CC1`, the Potency was inconclusive: 89.1 µM [inhibitor, single point].
For `Cc1ccc(NC(=O)N2CCC(CCNC(=O)c3ccco3)CC2)cc1F`, the “activity change, negative = cytotoxicity” value was inactive: -16.3%.
In the case of `COc1ccc(-c2nc(C3CC3)nc3c2CCN(C(=O)c2ccccc2OC)CC3)cc1`, the Potency was inconclusive: 100 µM [inhibitor, partial curve, poor fit].
With `O=C(NCCCc1ccccc1)C1CCCN(Cc2cccc(-c3cccs3)c2)C1` (stereo not drawn) the Potency was inconclusive: 50.1 µM [inhibitor, partial curve, poor fit].
In the case of `CC(C)CCN1CC2(CCCN(C(=O)c3cc(C(F)(F)F)[nH]n3)C2)CCC1=O` (stereo not drawn), the “activity change, negative = cytotoxicity” value was inactive: -12.7%.
With `COc1ccc(C(=O)NC2CCCN(Cc3cccc(-c4ccc(C)c(Cl)c4)c3)C2)cc1` (stereo not drawn) the Potency was inconclusive: 2.82 µM [inhibitor, full curve, poor fit].
In the case of `O=C(NCC1CCCO1)c1cc(-c2ccccc2F)cc2c1OCCN2Cc1cccnc1` (stereo not drawn), the Potency was inconclusive: 56.2 µM [inhibitor, partial curve, poor fit].
In the case of `CN(C)S(=O)(=O)N1CCC(Oc2ccc(C(=O)NCCc3ccncc3)cc2)CC1`, the Potency was inconclusive: 89.1 µM [inhibitor, single point].
In the case of `COc1ccc(F)cc1-c1cccc(C(=O)NCC(=O)NCc2ccc(C(F)(F)F)cc2)c1`, the Potency was active: 39.8 µM.
In the case of `COc1cccc(-c2cn3cc(C(=O)NCc4ccc(Cl)cc4)nc3s2)c1`, the Potency was inconclusive: 126 µM [inhibitor, single point].
For `Cn1cccc1C(=O)NC1CCN(c2cc(-c3ccccc3)[nH]n2)CC1`, the Potency was inconclusive: 56.2 µM [inhibitor, partial curve, poor fit].
In the case of `O=C(C1CCCN(Cc2cccc(-c3ccc(F)cc3F)c2)C1)N1CCC(c2ccccc2)CC1` (stereo not drawn), the Potency was inconclusive: 50.1 µM [inhibitor, partial curve, poor fit].
With `Cn1nc(C2CCCC2)cc1N[S+](=O)([O-])c1ccccc1` the “activity change, negative = cytotoxicity” value was inactive: -1.87% [at 172 µM].
With `COCCNC(=O)C[C@@H]1C[C@H]2O[C@H](CN)[C@@H](O)[C@H]2O1` the “activity change, negative = cytotoxicity” value was inactive: -2.95% [at 230 µM].
With `O=C1NCC2(CCN(C(=O)c3ccc(Cl)cc3)CC2)Oc2ccccc21` the Potency was inconclusive: 79.4 µM [inhibitor, partial curve].
For `CNC(=O)[C@@H]1CN(C(=O)c2c[nH]c3ccccc23)C[C@H]1COC`, the “activity change, negative = cytotoxicity” value was inactive: 1.46%.
For `Cc1cc(=O)n(CC(=O)N2CCCC(C)(Cc3ccc4c(c3)OCO4)C2)nc1C` (stereo not drawn), the Potency was inconclusive: 89.1 µM [inhibitor, partial curve, poor fit].
With `CCOc1ccc(C(=O)Nc2ccc3c(c2)CCC(=O)N3CC(C)C)cc1` the Potency was active: 28.2 µM.
For `COCC(=O)NC1CCN(Cc2ccc(-c3ccsc3)cc2)C1` (stereo not drawn), the Potency was inconclusive: 100 µM [inhibitor, partial curve, poor fit].
With `CC(=O)NC1(C)CCN(Cc2ccc(-c3cccc4ncccc34)cc2)C1` (stereo not drawn) the Potency was inconclusive: 112 µM [inhibitor, partial curve, poor fit].
In the case of `CC(C)=CCC1(CO)CCCN(c2ncccc2C(=O)N2CCCC2)C1` (stereo not drawn), the “activity change, negative = cytotoxicity” value was inactive: -1.81%.
For `OCC1CCN(Cc2cc3cc4c(cc3nc2-c2ccc(Cl)cc2)OCO4)CC1`, the Potency was inconclusive: 89.1 µM [inhibitor, single point].
With `COCCN1C[C@H]2CN(C)c3ccccc3[C@@H]2N(C(=O)c2ccc(OC)cc2)CCC1=O` the Potency was inconclusive: 35.5 µM [inhibitor, partial curve].
In the case of `Cc1cc(C(=O)N2CC(c3nnc(C(C)C)o3)C3(CCOCC3)C2)n(C)n1` (stereo not drawn), the “activity change, negative = cytotoxicity” value was inactive: -5.28%.
In the case of `CCCCCC(=O)N1[C@@H](c2ccccc2)[C@@H](CO)C[C@]12CCCCN(CCOC)C2=O`, the Potency was inconclusive: 50.1 µM [inhibitor, partial curve, poor fit].
For `CCc1nc2nccc(-c3cc(OC)c(OC)c(OC)c3)n2n1`, the “activity change, negative = cytotoxicity” value was inactive: -26.9%.
